Assays:
[1] = system: MDA-N breast cancer cells; assay: cells; settings: Homo sapiens
[2] = system: UACC-257 melanoma cells
[3] = system: NCI-H522 non-small cell lung cancer cells; assay: cells; settings: Homo sapiens
[4] = system: HL-60 (TB) leukemia cells; assay: cells; settings: Homo sapiens, HL-60
[5] = system: SN12C renal cancer cells; assay: cells; settings: Homo sapiens
[6] = system: HCT-15 colon cancer cells; assay: cells; settings: Homo sapiens
[7] = system: SK-MEL-28 melanoma cells; assay: cells; settings: Homo sapiens
[8] = system: 786-0 renal cancer cells; assay: cells; settings: Homo sapiens
[9] = system: OVCAR-5 ovarian cancer cells
[10] = system: SK-MEL-28 melanoma cells
[11] = system: MDA-MB-231/ATCC breast cancer cells; assay: cells; settings: Homo sapiens
[12] = system: NCI-H460 non-small cell lung cancer cells; assay: cells; settings: Homo sapiens
[13] = system: NCI-H522 non-small cell lung cancer cells
[14] = system: RPMI-8226 leukemia cells; assay: cells; settings: Homo sapiens
[15] = system: LOX IMVI melanoma cells; assay: cells; settings: Homo sapiens
[16] = system: HL-60 (TB) leukemia cells
[17] = system: A549/ATCC non-small cell lung cancer cells
[18] = system: KM12 colon cancer cells; assay: cells; settings: Homo sapiens
[19] = system: A549/ATCC non-small cell lung cancer cells; assay: cells; settings: Homo sapiens
[20] = system: SR leukemia cells; assay: cells
[21] = system: SK-MEL-5 melanoma cells; assay: cells; settings: Homo sapiens
[22] = system: TK-10 renal cancer cells; assay: cells; settings: Homo sapiens
[23] = system: UO-31 renal cancer cells
[24] = system: T-47D breast cancer cells; assay: cells; settings: Homo sapiens, T47D
[25] = system: NCI-H23 non-small cell lung cancer cells
[26] = system: MCF7 breast cancer cells
[27] = system: MDA-MB-435 breast cancer cells; assay: cells; settings: Homo sapiens
[28] = system: IGR-OV1 ovarian cancer cells; assay: cells; settings: Homo sapiens
[29] = system: MALME-3M melanoma cells; assay: cells; settings: Homo sapiens
[30] = system: SK-MEL-2 melanoma cells; assay: cells; settings: Homo sapiens
[31] = system: TK-10 renal cancer cells
[32] = system: BT-549 breast cancer cells; assay: cells; settings: Homo sapiens
[33] = read-out: Percent Growth, log10 conc -4.0
[34] = read-out: Percent Growth, log10 conc -5.0
[35] = read-out: Percent Growth, log10 conc -6.0
[36] = read-out: Percent Growth, log10 conc -7.0
[37] = read-out: Percent Growth, log10 conc -8.0

SMILES: COc1cc2c(c(OC)c1OC)-c1ccc(OC)c(=O)cc1[C@@H](NC(C)=O)CC2 [Colchicine, reference compound]
- GI50 [1]: < 0.01 µM
- activity at 100 µM [1, 33]: -9%
- activity at 10 µM [1, 34]: 27%
- activity at 1 µM [1, 35]: 25%
- activity at 0.1 µM [1, 36]: 26%
- activity at 0.01 µM [1, 37]: 38%
- TGI [2]: > 100 µM
- GI50 ([3]; NCI-H522): 0.0145 µM
- activity at 10 µM ([3]; NCI-H522, read-out: Percent Growth, log10 conc -5.0): -8%
- activity at 1 µM ([3]; NCI-H522, read-out: Percent Growth, log10 conc -6.0): -5%
- activity at 0.1 µM ([3]; NCI-H522, read-out: Percent Growth, log10 conc -7.0): -25%
- activity at 0.01 µM ([3]; NCI-H522, read-out: Percent Growth, log10 conc -8.0): 64%
- GI50 [4]: 0.0129 µM
- GI50 [5]: 0.0534 µM
- activity at 100 µM [5, 33]: -7%
- activity at 10 µM [5, 34]: 27%
- activity at 1 µM [5, 35]: 30%
- activity at 0.1 µM [5, 36]: 34%
- activity at 0.01 µM [5, 37]: 93%
- GI50 ([6]; HCT-15): 0.209 µM
- activity at 100 µM ([6]; HCT-15, read-out: Percent Growth, log10 conc -4.0): -31%
- activity at 10 µM ([6]; HCT-15, read-out: Percent Growth, log10 conc -5.0): -25%
- activity at 1 µM ([6]; HCT-15, read-out: Percent Growth, log10 conc -6.0): 4%
- activity at 0.1 µM ([6]; HCT-15, read-out: Percent Growth, log10 conc -7.0): 72%
- activity at 0.01 µM ([6]; HCT-15, read-out: Percent Growth, log10 conc -8.0): 104%
- GI50 ([7]; SK-MEL-28): 6.11 µM
- activity at 100 µM ([7]; SK-MEL-28, read-out: Percent Growth, log10 conc -4.0): 13%
- activity at 10 µM ([7]; SK-MEL-28, read-out: Percent Growth, log10 conc -5.0): 49%
- activity at 1 µM ([7]; SK-MEL-28, read-out: Percent Growth, log10 conc -6.0): 54%
- activity at 0.1 µM ([7]; SK-MEL-28, read-out: Percent Growth, log10 conc -7.0): 57%
- activity at 0.01 µM ([7]; SK-MEL-28, read-out: Percent Growth, log10 conc -8.0): 69%
- GI50 ([8]; 786-0): 0.0774 µM
- activity at 100 µM ([8]; 786-0, read-out: Percent Growth, log10 conc -4.0): 10%
- activity at 10 µM ([8]; 786-0, read-out: Percent Growth, log10 conc -5.0): 33%
- activity at 1 µM ([8]; 786-0, read-out: Percent Growth, log10 conc -6.0): 30%
- activity at 0.1 µM ([8]; 786-0, read-out: Percent Growth, log10 conc -7.0): 44%
- activity at 0.01 µM ([8]; 786-0, read-out: Percent Growth, log10 conc -8.0): 95%
- TGI [9]: 30.1 µM
- TGI [10]: > 100 µM
- GI50 ([11]; MDA-MB-231): 7.13 µM
- activity at 100 µM ([11]; MDA-MB-231, read-out: Percent Growth, log10 conc -4.0): 23%
- activity at 10 µM ([11]; MDA-MB-231, read-out: Percent Growth, log10 conc -5.0): 48%
- activity at 1 µM ([11]; MDA-MB-231, read-out: Percent Growth, log10 conc -6.0): 60%
- activity at 0.1 µM ([11]; MDA-MB-231, read-out: Percent Growth, log10 conc -7.0): 57%
- activity at 0.01 µM ([11]; MDA-MB-231, read-out: Percent Growth, log10 conc -8.0): 65%
- GI50 ([12]; NCI-H460): 0.0223 µM
- activity at 100 µM ([12]; NCI-H460, read-out: Percent Growth, log10 conc -4.0): -15%
- activity at 10 µM ([12]; NCI-H460, read-out: Percent Growth, log10 conc -5.0): -42%
- activity at 1 µM ([12]; NCI-H460, read-out: Percent Growth, log10 conc -6.0): -48%
- activity at 0.1 µM ([12]; NCI-H460, read-out: Percent Growth, log10 conc -7.0): -31%
- activity at 0.01 µM ([12]; NCI-H460, read-out: Percent Growth, log10 conc -8.0): 93%
- TGI [13]: 0.0529 µM
- GI50 ([14]; RPMI-8226): < 0.01 µM
- activity at 100 µM ([14]; RPMI-8226, read-out: Percent Growth, log10 conc -4.0): 16%
- activity at 10 µM ([14]; RPMI-8226, read-out: Percent Growth, log10 conc -5.0): 10%
- activity at 1 µM ([14]; RPMI-8226, read-out: Percent Growth, log10 conc -6.0): 10%
- activity at 0.1 µM ([14]; RPMI-8226, read-out: Percent Growth, log10 conc -7.0): 12%
- activity at 0.01 µM ([14]; RPMI-8226, read-out: Percent Growth, log10 conc -8.0): 39%
- GI50 [15]: 0.0195 µM
- activity at 100 µM [15, 33]: -76%
- activity at 10 µM [15, 34]: -7%
- activity at 1 µM [15, 35]: -21%
- activity at 0.1 µM [15, 36]: 4%
- activity at 0.01 µM [15, 37]: 69%
- TGI [16]: 0.0822 µM
- TGI [17]: > 100 µM
- activity at 100 µM ([18]; KM12, read-out: Percent Growth, log10 conc -4.0): 10%
- activity at 10 µM ([18]; KM12, read-out: Percent Growth, log10 conc -5.0): 26%
- activity at 0.1 µM ([18]; KM12, read-out: Percent Growth, log10 conc -7.0): 23%
- activity at 0.01 µM ([18]; KM12, read-out: Percent Growth, log10 conc -8.0): 74%
- GI50 ([19]; A549): 0.261 µM
- activity at 100 µM ([19]; A549, read-out: Percent Growth, log10 conc -4.0): 11%
- activity at 10 µM ([19]; A549, read-out: Percent Growth, log10 conc -5.0): 38%
- activity at 1 µM ([19]; A549, read-out: Percent Growth, log10 conc -6.0): 41%
- activity at 0.1 µM ([19]; A549, read-out: Percent Growth, log10 conc -7.0): 56%
- GI50 [20]: 0.0327 µM
- activity at 100 µM [20, 33]: 15%
- activity at 10 µM [20, 34]: 6%
- activity at 1 µM [20, 35]: 7%
- activity at 0.1 µM [20, 36]: 12%
- activity at 0.01 µM [20, 37]: 91%
- GI50 ([21]; SK-MEL-5): < 0.01 µM
- activity at 100 µM ([21]; SK-MEL-5, read-out: Percent Growth, log10 conc -4.0): 0%
- activity at 10 µM ([21]; SK-MEL-5, read-out: Percent Growth, log10 conc -5.0): 8%
- activity at 1 µM ([21]; SK-MEL-5, read-out: Percent Growth, log10 conc -6.0): 9%
- activity at 0.1 µM ([21]; SK-MEL-5, read-out: Percent Growth, log10 conc -7.0): 9%
- activity at 0.01 µM ([21]; SK-MEL-5, read-out: Percent Growth, log10 conc -8.0): 47%
- GI50 ([22]; TK-10): > 100 µM
- activity at 100 µM ([22]; TK-10, read-out: Percent Growth, log10 conc -4.0): 71%
- activity at 10 µM ([22]; TK-10, read-out: Percent Growth, log10 conc -5.0): 80%
- activity at 1 µM ([22]; TK-10, read-out: Percent Growth, log10 conc -6.0): 76%
- activity at 0.1 µM ([22]; TK-10, read-out: Percent Growth, log10 conc -7.0): 73%
- TGI [23]: > 100 µM
- GI50 [24]: 61.4 µM
- activity at 100 µM [24, 33]: 42%
- activity at 10 µM [24, 34]: 82%
- activity at 1 µM [24, 35]: 79%
- activity at 0.1 µM [24, 36]: 89%
- activity at 0.01 µM [24, 37]: 81%
- TGI [25]: > 100 µM
- TGI [26]: > 100 µM
- GI50 ([27]; MDA-MB-435): < 0.01 µM
- activity at 100 µM ([27]; MDA-MB-435, read-out: Percent Growth, log10 conc -4.0): -34%
- activity at 10 µM ([27]; MDA-MB-435, read-out: Percent Growth, log10 conc -5.0): -28%
- activity at 1 µM ([27]; MDA-MB-435, read-out: Percent Growth, log10 conc -6.0): -22%
- activity at 0.1 µM ([27]; MDA-MB-435, read-out: Percent Growth, log10 conc -7.0): -31%
- activity at 0.01 µM ([27]; MDA-MB-435, read-out: Percent Growth, log10 conc -8.0): 31%
- GI50 ([28]; IGROV-1): 0.0525 µM
- activity at 100 µM ([28]; IGROV-1, read-out: Percent Growth, log10 conc -4.0): 26%
- activity at 10 µM ([28]; IGROV-1, read-out: Percent Growth, log10 conc -5.0): 22%
- activity at 1 µM ([28]; IGROV-1, read-out: Percent Growth, log10 conc -6.0): 23%
- activity at 0.1 µM ([28]; IGROV-1, read-out: Percent Growth, log10 conc -7.0): 30%
- GI50 [29]: 0.0186 µM
- activity at 100 µM [29, 33]: -30%
- activity at 10 µM [29, 34]: 42%
- activity at 1 µM [29, 35]: 44%
- activity at 0.1 µM [29, 36]: 38%
- activity at 0.01 µM [29, 37]: 54%
- GI50 ([30]; SK-MEL-2): < 0.01 µM
- activity at 100 µM ([30]; SK-MEL-2, read-out: Percent Growth, log10 conc -4.0): -32%
- activity at 10 µM ([30]; SK-MEL-2, read-out: Percent Growth, log10 conc -5.0): -16%
- activity at 1 µM ([30]; SK-MEL-2, read-out: Percent Growth, log10 conc -6.0): -10%
- activity at 0.1 µM ([30]; SK-MEL-2, read-out: Percent Growth, log10 conc -7.0): -25%
- activity at 0.01 µM ([30]; SK-MEL-2, read-out: Percent Growth, log10 conc -8.0): -13%
- TGI [31]: > 100 µM
- GI50 ([32]; BT-549): 0.0425 µM
- activity at 100 µM ([32]; BT-549, read-out: Percent Growth, log10 conc -4.0): -21%
- activity at 10 µM ([32]; BT-549, read-out: Percent Growth, log10 conc -5.0): 48%
- activity at 1 µM ([32]; BT-549, read-out: Percent Growth, log10 conc -6.0): 42%
- activity at 0.1 µM ([32]; BT-549, read-out: Percent Growth, log10 conc -7.0): 39%
- activity at 0.01 µM ([32]; BT-549, read-out: Percent Growth, log10 conc -8.0): 69%
